Reference: paper PMC4336329 (PLoS ONE, 2015)
Hit rate of the full screen: of about 310,000 compounds, about 14,000 (4.5%) showed an effect of 50% or more. The effect is printed as a negative number. The list shows a part of the results.
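Note: peak tail current of the secondary pulse compared with the same well before compound.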

These compounds were tested against human ether-à-go-go-related gene (hERG) potassium channel (human, UniProt Q12809) (assay: primary screen, population patch clamp on CHO cells stably expressing hERG).
human ether-à-go-go-related gene (hERG) potassium channel, sequence (Q12809 whole entry, looked up): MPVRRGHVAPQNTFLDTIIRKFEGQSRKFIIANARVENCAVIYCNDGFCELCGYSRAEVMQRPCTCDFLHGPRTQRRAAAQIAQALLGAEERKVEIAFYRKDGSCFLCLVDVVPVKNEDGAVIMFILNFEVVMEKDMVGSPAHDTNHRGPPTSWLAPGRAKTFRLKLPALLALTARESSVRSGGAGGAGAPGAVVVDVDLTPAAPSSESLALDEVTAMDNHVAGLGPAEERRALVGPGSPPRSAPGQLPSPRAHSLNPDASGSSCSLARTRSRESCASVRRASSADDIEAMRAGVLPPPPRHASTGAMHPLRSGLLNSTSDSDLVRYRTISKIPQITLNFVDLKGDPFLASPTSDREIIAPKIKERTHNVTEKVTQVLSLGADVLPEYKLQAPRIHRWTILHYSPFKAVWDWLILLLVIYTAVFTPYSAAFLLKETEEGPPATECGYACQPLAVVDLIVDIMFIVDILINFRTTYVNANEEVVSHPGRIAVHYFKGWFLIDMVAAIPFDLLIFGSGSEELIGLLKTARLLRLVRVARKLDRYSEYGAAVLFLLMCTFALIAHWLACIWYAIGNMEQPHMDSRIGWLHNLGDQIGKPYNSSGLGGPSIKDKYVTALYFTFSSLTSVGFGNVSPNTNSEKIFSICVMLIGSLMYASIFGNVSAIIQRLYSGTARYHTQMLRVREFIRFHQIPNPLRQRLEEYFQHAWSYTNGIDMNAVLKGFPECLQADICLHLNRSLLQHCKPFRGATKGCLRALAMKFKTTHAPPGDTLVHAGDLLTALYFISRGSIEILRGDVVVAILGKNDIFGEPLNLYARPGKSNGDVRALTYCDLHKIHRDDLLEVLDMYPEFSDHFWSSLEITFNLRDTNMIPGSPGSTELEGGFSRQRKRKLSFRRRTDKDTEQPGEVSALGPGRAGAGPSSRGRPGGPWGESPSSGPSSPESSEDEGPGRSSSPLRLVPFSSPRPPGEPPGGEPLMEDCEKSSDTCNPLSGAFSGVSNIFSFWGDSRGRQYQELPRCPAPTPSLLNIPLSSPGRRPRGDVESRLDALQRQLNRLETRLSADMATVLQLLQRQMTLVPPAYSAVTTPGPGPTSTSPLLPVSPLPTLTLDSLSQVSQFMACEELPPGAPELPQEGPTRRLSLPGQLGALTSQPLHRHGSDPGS
In the case of `COc1ccc(C2NC(=O)NC(O)(C(F)(F)F)C2C(=O)c2ccc(C)cc2)cc1` (stereo not shown), the “hERG current change (%, negative = inhibition) at 10uM” value was -4.52%. With `COc1ccc(NC(=O)N2CCc3ccccc3C2)cc1OC` the “hERG current change (%, negative = inhibition) at 10uM” value was 11.3%. With `COc1ccc2[nH]c(O)c(N=NC(=O)c3ccc(NS(=O)(=O)c4cccs4)cc3)c2c1` the “hERG current change (%, negative = inhibition) at 10uM” value was 7.35%. In the case of `CC(c1ccccn1)N(Cc1ccco1)C(=S)Nc1cccc(F)c1` (stereo not shown), the “hERG current change (%, negative = inhibition) at 10uM” value was -6.71%. With `C=CCn1c(SCc2csc(C)n2)nc2scc(-c3ccc(C)o3)c2c1=O` the “hERG current change (%, negative = inhibition) at 10uM” value was -14%. With `C=CCN1C(=O)c2ccccc2Sc2ccc(C(=O)NCC(OC)OC)cc21` the “hERG current change (%, negative = inhibition) at 10uM” value was 7.24%. `COc1ccc(S(=O)(=O)Nc2cc3[nH]c(=O)oc3cc2C)cc1` was tested, and the “hERG current change (%, negative = inhibition) at 10uM” value was 14.7%. In the case of `CCOc1cc(N2CCOCC2)c(OCC)cc1NC(=O)COc1ccc2ccc(=O)oc2c1`, the “hERG current change (%, negative = inhibition) at 10uM” value was 6.18%. For `CCOc1ccc2nc(SCc3ccc(OC)cc3)sc2c1`, the “hERG current change (%, negative = inhibition) at 10uM” value was 7.35%. In the case of `CN(C)S(=O)(=O)c1ccc(C(=O)OCCn2cnc3c2c(=O)n(C)c(=O)n3C)cc1`, the “hERG current change (%, negative = inhibition) at 10uM” value was -2.76%. In the case of `O=C1OCCC1Sc1nnnn1-c1ccc(Cl)cc1` (stereo not shown), the “hERG current change (%, negative = inhibition) at 10uM” value was 2.19%. In the case of `Cc1csc(NC(=O)c2ccc(C(=O)Nc3nc(C)cs3)cc2)n1`, the “hERG current change (%, negative = inhibition) at 10uM” value was 0.962%. In the case of `Cc1ccc(SCCNC(=S)Nc2cc(C)cc(C)c2)cc1`, the “hERG current change (%, negative = inhibition) at 10uM” value was 6.33%. With `CCOc1cc(-c2noc(-c3ccncc3)n2)cc(Br)c1OC` the “hERG current change (%, negative = inhibition) at 10uM” value was 4.5%. With `Cn1c(=O)c2c(nc(N3CCN(c4ccc([N+](=O)[O-])cc4)CC3)n2C)n(C)c1=O` the “hERG current change (%, negative = inhibition) at 10uM” value was -76.2%. `O=S(=O)(Cc1ccccc1)N(O)c1ccccc1` was tested, and the “hERG current change (%, negative = inhibition) at 10uM” value was 17.6%. For `CCN(C(=O)c1ccc(NC(=O)c2ccco2)cc1)c1ccccc1`, the “hERG current change (%, negative = inhibition) at 10uM” value was 0.858%. In the case of `CS(=O)(=O)Nc1cccc(C2=NN(C(=O)c3ccccc3)C(c3cccs3)C2)c1` (stereo not shown), the “hERG current change (%, negative = inhibition) at 10uM” value was -14%. With `Cn1cc([N+](=O)[O-])c(C(=O)Nc2nccs2)n1` the “hERG current change (%, negative = inhibition) at 10uM” value was 15.6%. With `COCCN(CC(=O)Nc1cccc(C)c1C)C(=O)c1cc(S(=O)(=O)N2CCCC2)ccc1C` the “hERG current change (%, negative = inhibition) at 10uM” value was -3.93%. `Nc1cc(=O)nc(SCC(=O)N2CCN(c3ccccc3)CC2)n1-c1ccccc1` was tested, and the “hERG current change (%, negative = inhibition) at 10uM” value was 18.3%. With `CC(Oc1cccc(Cl)c1)C(=O)NC1CC(C)(C)NC(C)(C)C1` (stereo not shown) the “hERG current change (%, negative = inhibition) at 10uM” value was -2.65%. For `CC(C)(C)c1ccc(/C=C/C(=O)N2CCOCC2)cc1`, the “hERG current change (%, negative = inhibition) at 10uM” value was 1.09%. For `CN(C)CCCOC(=O)c1ccc(Cl)cc1Cl.Cl`, the “hERG current change (%, negative = inhibition) at 10uM” value was -38.8%. In the case of `CCOC(=O)Cn1c(=O)oc2cc(S(=O)(=O)NCCc3ccc(OCC)c(OCC)c3)ccc21`, the “hERG current change (%, negative = inhibition) at 10uM” value was -13.7%. For `N#CC1(NC(=O)COC(=O)c2ncc(Cl)c(Cl)c2Cl)CCCCC1`, the “hERG current change (%, negative = inhibition) at 10uM” value was -22.3%. `CCOC(=O)c1cc(-c2ccc(F)cc2)n(CC(=O)NCc2ccccn2)c1C` was tested, and the “hERG current change (%, negative = inhibition) at 10uM” value was 5.76%. In the case of `CCOC(=O)N1CCN(C(=O)CN(c2cccc(C)c2)S(=O)(=O)c2ccc(C)cc2)CC1`, the “hERG current change (%, negative = inhibition) at 10uM” value was -39.7%. For `CNC(=O)C(=O)N/N=C/c1ccccn1`, the “hERG current change (%, negative = inhibition) at 10uM” value was 20.5%. `CCOC(=O)N1CCN(C(=S)NC(=O)c2ccnn2C)CC1` was tested, and the “hERG current change (%, negative = inhibition) at 10uM” value was 15.8%. `O=C(OC(C(=O)NCc1ccc2c(c1)OCO2)c1ccc(Cl)cc1)c1ccco1` (stereo not shown) was tested, and the “hERG current change (%, negative = inhibition) at 10uM” value was -23%. `S=C(Nc1cccc(Cl)c1Cl)N1CCCC1` was tested, and the “hERG current change (%, negative = inhibition) at 10uM” value was 17.9%. In the case of `Cc1ccc(OCCOc2cccc3ccc(C)nc23)c([N+](=O)[O-])c1.O=C(O)C(=O)O`, the “hERG current change (%, negative = inhibition) at 10uM” value was -10.7%. For `CC1CC(c2ccccc2)n2nc(NC(=O)c3cccs3)nc2N1` (stereo not shown), the “hERG current change (%, negative = inhibition) at 10uM” value was 16.6%. With `O=C(NC(Cc1ccccc1)C(=O)N1CCN(c2ccccn2)CC1)c1ccco1` (stereo not shown) the “hERG current change (%, negative = inhibition) at 10uM” value was -15.9%. With `O=C(NC1CCN(C(=S)NCc2ccco2)CC1)NC12CC3CC(CC(C3)C1)C2` the “hERG current change (%, negative = inhibition) at 10uM” value was 5.73%. With `CC12CCCc3c(O)cc(=O)n(c31)-c1ccccc12` (stereo not shown) the “hERG current change (%, negative = inhibition) at 10uM” value was -1.22%. In the case of `Cc1ccc(C(=O)CC2(O)C(=O)N(C)c3ccc(Br)cc32)c(C)c1` (stereo not shown), the “hERG current change (%, negative = inhibition) at 10uM” value was -12.7%. For `N#CSC(c1ccccc1)c1nc2ccccc2[nH]c1=O` (stereo not shown), the “hERG current change (%, negative = inhibition) at 10uM” value was 15.8%. For `Cc1cccc(N(C(=O)c2ccc(Cl)cc2)C2CS(=O)(=O)CC2OC(=O)c2ccc(Cl)cc2)c1` (stereo not shown), the “hERG current change (%, negative = inhibition) at 10uM” value was 11.1%. `COc1ccc(NC(=O)CCNS(=O)(=O)c2ccc3c(c2)c(=O)n(C)c(=O)n3C)cc1` was tested, and the “hERG current change (%, negative = inhibition) at 10uM” value was -2.03%. `CCN(CC)CCN1C(=O)c2ccccc2NC1c1ccc(C)cc1` (stereo not shown) was tested, and the “hERG current change (%, negative = inhibition) at 10uM” value was -66.1%. In the case of `O=C(Nc1nc(=O)c2ccccc2s1)c1ccc(F)cc1`, the “hERG current change (%, negative = inhibition) at 10uM” value was 11.5%. With `COc1ccc(OCc2ccc(C(=O)NN)cc2)cc1` the “hERG current change (%, negative = inhibition) at 10uM” value was -8.32%. For `CCOC(=O)C1(CCCc2ccccc2)CCN(C(=O)c2cnc(C)cn2)CC1`, the “hERG current change (%, negative = inhibition) at 10uM” value was -39.8%. `O=C(c1c(F)cccc1F)N1CCN(CCOc2ccccc2)CC1` was tested, and the “hERG current change (%, negative = inhibition) at 10uM” value was -8.2%. `C=CCn1c(Sc2nncn2C)nc2c1c(=O)[nH]c(=O)n2C` was tested, and the “hERG current change (%, negative = inhibition) at 10uM” value was 11.8%. For `C/C(=N/NC(=O)c1cc(C)[nH]n1)c1ccncc1`, the “hERG current change (%, negative = inhibition) at 10uM” value was -27.4%. With `O=C(Cn1c(=O)n(-c2cccc(Cl)c2)c(=O)n1CC(=O)N1CCCCC1)N1CCCCC1` the “hERG current change (%, negative = inhibition) at 10uM” value was 4.64%. For `O=C(NC(=S)Nc1ccccc1)c1cncc(C#Cc2ccccc2)c1`, the “hERG current change (%, negative = inhibition) at 10uM” value was 16.5%. `CN(C)C1CCN(C(=O)c2cccc(OC3CCN(S(=O)(=O)N(C)C)CC3)c2)C1` (stereo not shown) was tested, and the “hERG current change (%, negative = inhibition) at 10uM” value was 23.9%. In the case of `COc1ccc(C(=O)OCC(=O)NCc2ccc3c(c2)OCO3)cc1[N+](=O)[O-]`, the “hERG current change (%, negative = inhibition) at 10uM” value was 9.98%. With `C/C(=N/NC(=O)c1ccc(Br)s1)c1cccnc1` the “hERG current change (%, negative = inhibition) at 10uM” value was -20.8%. With `CCN(CC(=O)Nc1ccc2c(c1)OCCO2)c1nc(-c2cccnc2)nc2ccccc12` the “hERG current change (%, negative = inhibition) at 10uM” value was -39.1%. With `COc1cccc(NC(=S)N2CCCC2c2ccc(OC)c(OC)c2)c1` (stereo not shown) the “hERG current change (%, negative = inhibition) at 10uM” value was 1.24%.
